The text below walks through data of patent US20150023989A1, “NEW ANTIBODY DRUG CONJUGATES (ADCS) AND THE USE THEREOF” (SEATTLE GENETICS, INC., priority 2011, published 2015).

Like-named read-outs stand apart in the source and are kept apart here.

The test system of experiment [1] is MDA-MB-231 human breast cancer cells. The experiment can be described thus: Cytotoxic effect of the FGFR2 ADCs (Cell Titer Glow viability assay). The conditions noted are these: read-out: MDA-MB-231, IC50, 72 hr, 72 hr incubation, growth inhibition vs day 0, cell line does not express FGFR2 at the cell surface. It is filed as cell-based. The protocol:
(§1) To determine the amounts of FGFR2 available for the antibody on the cell surface, the cell binding of the FGFR2 antibody on different tumour cell lines was analysed in flow cytometry. The cell lines below were used for the experiments. The information on mutations and copy number of the FGFR2 comes from the Sanger Center Genome Project: • SNU-16 human stomach carcinoma cells, FGFR2 gene amplification (copy number 14; ATCC-CRL-5974, RPMI 1640 (Biochrom FG1215)+10% FCS • KatoIII human stomach carcinoma cells, FGFR2 gene amplification (copy number 14 ATCC-TCP-1008; Iscove's (Biochrom FG0465)+20% FCS • SUM52-PE human breast cancer cells, FGFR2 gene amplification (copy number 14; Asterand Lot No.: 28062A1-6004; Ham's F12 (Biochrom FG0815)+5% FCS+10 mM Hepes buffer+1 μg/ml hydrocortisone+5 μg/ml insulin • MFM-223 human breast cancer cells, FGFR2 gene amplification (copy number 14; ECACC-98050130, MEM Earle (Biochrom F0315)+10% FCS+2 mM glutamine • NCI-H716 human colorectal carcinoma cells, FGFR2 gene amplification (copy number: 8; ATCC-CCL-251; RPMI 1640 (Biochrom FG1215)+10% FCS) • MDA-MB-231 human breast cancer cells (no FGFR2 gene amplification, copy number 3; ATCC-HTB-26, DMEM/HAM's F12 (Biochrom FG4815)+10% FCS
(§2) The cytotoxic effect of the FGFR2 ADCs was determined on various cell lines with different expression quantities of FGFR2, as follows:
(§3) The cells were cultured according to a standard method, using the growth media indicated under C-1. For the implementation, the cells were detached with a solution of trypsin (0.05%) and EDTA (0.02%) in PBS (Biochrom AG #L2143), pelletized, resuspended in culture medium, counted, and seeded into a 96-well culture plate with a white base (Costar #3610) (at 75 μl/well, following cell counts per well: SNU-16: 3000; MFM-223: 7000; MDA-MB-231: 4000; SUM52-PE: 3000; NCI-H716: 3000; KatoIII: 3000) and incubated in an incubator at 37° C. under 5% carbon dioxide. After 24 hours, the antibody-drug conjugates in 25 μl of culture medium (four-fold concentration) were applied to the cells, giving final antibody-drug conjugate concentrations of 3×10^−7 M to 3×10^−11 M on the cells (triplicates). The cells were then incubated in an incubator at 37° C. and 5% carbon dioxide. In a parallel plate, the cell vitality at the beginning of drug treatment (day 0) was determined using the Cell Titer Glow Luminescent Cell Viability Assay (Promega #G7573 and #G7571). For this, 100 μl of the substrate were added per cell batch, and the plates were then covered with aluminium foil, shaken at 180 rpm with a plate shaker for 2 minutes, left to stand on the laboratory bench for 8 minutes, and then measured using a luminometer (Victor X2, Perkin Elmer). The substrate detects the ATP content in the living cells, producing a luminescence signal whose level is directly proportional to the vitality of the cells. After 72 hours of incubation with the antibody-drug conjugates, the vitality was determined in these cells as well, using the Cell Titer Glow Luminescent Cell Viability Assay as described above. From the data measured, the IC50 of growth inhibition was calculated in comparison to that on day 0, using the laboratory software MTS (developed by Schering AG and Bayer Business Services 1999-2009) on the basis of a 4-parameter adaptation.
A general note: Cellular ATP, detected with luciferase, serves as a proxy for viable cell number.

Experiment [2] concerns MFM-223 human breast cancer cells. Described as above. It is filed as cell-based. On the procedure:
as §1, §2, §3

Experiment [3] deals with SNU-16 human stomach carcinoma cells. Described as above. It is filed as cell-based. The protocol:
as §1, §2, §3

In experiment [4] the test system is SNU-16 stomach carcinoma cells. The experiment can be described thus: SNU-16 xenograft model in the mouse. The format is in vivo. The settings on record: day 31; for T/C: female NODscid mice. On the procedure:
Human tumour cells which express FGFR2 were inoculated subcutaneously into the flank of immunosuppressed mice, such as nude mice or SCID mice. 1-10 million cells are detached from the cell culture, centrifuged and resuspended with 100 μl of medium, 50% medium/50% Matrigel or 100% Matrigel. The cell suspension was injected beneath the skin of the mouse.
Within a few days, a tumour grew. Treatment began no earlier than at a tumour size of 20-25 mm^2 after establishment of a tumour.
Treatment with conjugate took place via the intravenous route into the caudal vein of the mouse. The conjugate was dissolved in PBS and is administered with a volume of 5-10 ml/kg.
The treatment scheme was governed by the pharmacokinetics of the antibody. As a standard, treatment took place three times following every fourth day or every seventh day. Treatment, however, may also be continued further, or a second cycle with three days of treatment may follow at a later point in time.
As a standard basis, 8 animals were used per treatment group. This number may be higher if particularly strong fluctuations in tumour growth or after treatment are anticipated. As well as the groups which receive the active substances, one group, as a control group, was treated only with the buffer, in accordance with the same scheme.
In the course of the experiment, the area of the tumour was measured regularly using a sliding caliper in two dimensions (length/width). The area of the tumour was calculated by means of the formula length× width.
At the end of the experiment, the tumours were removed and weighed. The ratio of the average tumour weights for the therapy group (T) to the control group (C) was expressed as T/C. If control and treatment groups finished at different times, then the T/C value was calculated using the tumour areas of the last common measurement of all treatment and control groups.
Two million SNU-16 stomach carcinoma cells were inoculated subcutaneously into the flank of female NODscid mice.
Intravenous treatment with the conjugates was commenced at an average tumour size of 20-30 mm^2 When the control groups had reached the maximum permissible size, these groups were ended. The experimental groups treated with FGFR2 conjugates were ended when the tumours began to grow again. The activity of the conjugates was determined on day 31, the last point in time at which the vehicle control was still in the experiment. All of the FGFR2 conjugates tested inhibited tumour growth in a dose-dependent manner. At a dose of 5 mg/kg, Example 1 achieved a T/C of 0.08, Example 3 a T/C of 0.06 and Example 26 a T/C of 0.10. […] At a dose of 2.5 mg/kg, Example 26 achieved a T/C of 0.14. At this dose, Example 26 led to partial regression in 40% of the animals. […]

B1: Example 1: immunoconjugate; "Coupling here was carried out using 30 mg of M048-D01-hIgG1" (cysteine coupling) (conjugate)
heavy: QVELLESGGGLVQPGGSLRLSCAASGFTFSSYAMSWVRQAPGKGLEWVSAISGSGTSTYYADSVKGRFTISRDNSKNTLYLQMNSLRAEDTAVYYCARVRYNWNHGDWFDPWGQGTLVTVSS[no letters for human IgG1 constant region]
light: QSVLTQPPSASGTPGQRVTISCSGSSSNIGNNYVSWYQQLPGTAPKLLIYENYNRPAGVPDRFSGSKSGTSASLAISGLRSEDEADYYCSSWDDSLNYWVFGGGTKLTVLGQPKAAPSVTLFPPSSEELQANKATLVCLISDFYPGAVTVAWKADSSPVKAGVETTTPSKQSNNKYAASSYLSLTPEQWKSHRSYSCQVTHEGSTVEKTVAPTECS
With B1, the half-inhibitory concentration (IC50) in experiment [1] is more than 300000 pM; in experiment [1] (listed as Working Example 1), not below 300000 pM; in experiment [2] (read-out: MFM-223, IC50, 72 hr, 72 hr incubation, growth inhibition vs day 0, at the drug/mAB ratios indicated), 90.7 pM; in experiment [3] (read-out: SNU-16, IC50, 72 hr, 72 hr incubation, growth inhibition vs day 0, at the drug/mAB ratios indicated) it was 214 pM. Besides, the “IC50 of proliferation, MFM-223 (concentration range in words)” value in experiment [2] is on record as “subnanomolar”. Besides, the “IC50 of proliferation, SNU-16 (concentration range in words)” value in experiment [3] is “subnanomolar”. The “partial regression (animals)” value in experiment [4] (1 mg/kg i.v.) is listed as “all of the animals treated”. Also, the T/C stood at 0.15 in experiment [4] (1 mg/kg i.v.) and 0.08 in experiment [4] (5 mg/kg i.v.). Also, the “partial regression of the tumour (animals)” value in experiment [4] (5 mg/kg i.v.) is “all of the animals treated”.

Broadly, the IC50 is the concentration at which inhibition is half-maximal.
